# Measurements as given in the supplement of paper PMC11417369.
# ± gives the standard deviation of the averaged measurements. This is one part of the list.
# Test system: PfAP2-LT AP2 domain (GST-tagged)
# Experiment: gcPBM binding intensity (ln(normalized median fluorescence intensity)); higher = stronger DNA binding
# Procedure, shortened: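 In this array assay, P. falciparum DNA-binding domains with a GST tag, expressed in E. coli, were applied for 1 h to primer-extended double-stranded 36-bp intergenic genomic probes and negative controls on an Agilent 4 × 180k array. Bound protein was visualised with Alexa488 anti-GST antibody at 488 nm. Binding intensity is the highest Masliner-normalised natural-log median intensity across replicate spots of either probe orientation.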
row,Sequence,gcPBM binding intensity (ln)
1,AAAATAATTGTTTACACACCCATTTGTAATTTTACC [CACACA_site3614],9.05 ± 0.42
2,CTGTGTTTTGGTTGTACACACGCTACATTCTATATT [CACACA_site2698],9.42 ± 0.34
3,ACCATACAGAATAATGCATGTTCCTTTTTATGAATA [TGCATGCA_site995],8.69 ± 0.36
4,AAAAAAATAAAGGATATACACACTAATTATATATAT [CACACA_site2812],8.88 ± 0.42
5,TATACTTGTAAATGCACACATAAGATGCGACTAATG [CACACA_site2118],9.03 ± 0.31
6,TCTATATCAACCAGTTGTACTGAATTTACTATATTT [XGTACX_site4205],8.69 ± 0.58
7,TATAAAAGTAGACACACACACATATAAATATAAATA [CACACA_site6567],9.66 ± 0.27
8,GTAGACTGAAACCACACACACATATATAAATATATT [CACACA_site6433],9.68 ± 0.38
9,AAAAAAAAAAATGGTTGTACTTTTTTTATTTGGTGC [XGTACX_site4498],8.6 ± 0.43
10,ATATTATATTGGATGTTGCACTTAACAAAAGGATAT [GTGCAC_site9478],8.67 ± 0.48
11,ATAGACTTTTGTTTTGTTTTATTTTATTGTATTGTA [CACACA_negctrl_site618],8.88 ± 0.45
12,ATTTACATTATATTGAATATGCCATATTATATTATT [CACACA_negctrl_site811],8.82 ± 0.47
13,TCTAACATATTTTTAATACACACTTAAAAAAGTACT [CACACA_site1366],8.59 ± 0.4
14,AATGCTTTTCATCAAGTGCAATATGTTAATACAAAC [GTGCAC_site9619],8.64 ± 0.38
15,AGAAAAAAAAAAAAAAAACACACGGTACATTCAAAG [CACACA_site2],8.84 ± 0.43
16,TAATTTTCATATTTCTGTACATATATTATAAATATA [XGTACX_site3480],8.48 ± 0.4
17,TAATATATATATATTACACACACGTATTATTAAATA [CACACA_site432],9.09 ± 0.3
18,TGTATGTATAATTGAGTGCACAGAAAAAAAAAAGAA,8.88 ± 0.59
19,TCATATATGGGTAGTATACACACTGTATATTTAGGA [CACACA_site2844],8.86 ± 0.43

row,Sequence,gcPBM binding intensity (ln)
1,TTTGCCCAAAAAGGTACACACCACAATGTACATAAA [CACACA_site4599],8.85 ± 0.49
2,TTTTATTTAAATACACGTACATAATGTATATATATA [XGTACX_site7160],8.64 ± 0.39
3,AAAAAAAAAAAACACACACACACAAATATATAAAAA [CACACA_site1171],9.77 ± 0.31
4,ATACCTTCTTTTATGTTTAATTAATATACTTTTTAT [CACACA_negctrl_site1557],8.96 ± 0.55
5,GTATAAAAGTTATATACACACAACAGAATTACATAT [CACACA_site6212],9.21 ± 0.41
6,TTTGAAAAAAATTAATGTACATTTGAAATGACATAT [XGTACX_site3902],8.37 ± 0.43
7,AATACATACATACATACACACATATAAATATATTAT [CACACA_site7650],9.42 ± 0.38
8,TACTAATATAATAAAAGTACTTAAATAAATATATGT [XGTACX_site2220],8.73 ± 0.39
9,GAACATTTCACACAAAAAAAAAAAAATATATATATA [TGCATGCA_negctrl_site518],8.96 ± 0.28
10,ACATGATGTCATAAATGTACGCACACATACATAAAC [XGTACX_site1198],9.24 ± 0.3
11,TCTTTTTAAATATATACACACCGTGTCTACAGATAC [CACACA_site5784],9.07 ± 0.46
12,TAAATAAAAAAAAATCGTACATATATTTTATATATG [XGTACX_site3293],8.35 ± 0.51
13,TTTTCAAAAATATACACACACATAAATATCTGTATA [CACACA_site4586],9.35 ± 0.23
14,TCGTAATAATAGTTGAGTACGCACTAATATGTCAAT [XGTACX_site643],9.09 ± 0.44
15,TATTTACATTTTAGTAGTACATATATGTATATATAT [XGTACX_site6839],8.86 ± 0.48
16,AATTATATGCTTAATACGCACACGGGAAAAAAAAAA [CACACA_site1376],9.01 ± 0.47
17,ACATATCTATCGTTTTTAATTGTATATTATTATAAC [TGCATGCA_negctrl_site144],8.86 ± 0.38
18,TGTTTGTAATTATGTATGCACTTTTTTGTATGTGTG [GTGCAC_site9668],9.12 ± 0.42
19,TCTTGTATATGTTAAAGTACACAACAATATATATAT [XGTACX_site6814],8.7 ± 0.34

row,Sequence,gcPBM binding intensity (ln)
1,TCCCACTGTTATATTGAAAAAAAAAAAAAAAAAAAA [TGCATGCA_negctrl_site288],8.2 ± 0.23
2,ATATTCTTGTTTAATACACACTGTAGTATTATATAT [CACACA_site4400],9.08 ± 0.41
3,TAATGAGCGCTTGTAGTGCATTATATTCAAAAATAT,8.72 ± 0.48
4,AGAAAAAAACAACATGCACACGCACCCACAAAAAAA [CACACA_site7908],9.51 ± 0.28
5,AGATAAAATATATATGCACACACATATATATTTCAT [CACACA_site9183],9.23 ± 0.33
6,TAATTATTTAAAAAGAGTACATTTTTTTTTTTTTTT [XGTACX_site1060],8.15 ± 0.4
7,ATAATTATTTAATATATATATATTATTTCGAATGTT [GTGCAC_negctrl_site688],8.87 ± 0.4
8,ATTCTATATAAATATACACACATATATAAAATACAT [CACACA_site2293],8.93 ± 0.38
9,TTAATAATTAATATATGTACTGATAAATAACATATA [XGTACX_site3966],8.49 ± 0.28
10,AATGTACGTTTTATAACACACACACTAATAAAAAAA [CACACA_site9286],9.29 ± 0.25
11,CCACATTAAAAAAAAACACACATATATTATAGATAT [CACACA_site6662],8.83 ± 0.4
12,ATCTTCAAAAATATTAGTACACATGTATCATGAATT [XGTACX_site3872],8.8 ± 0.46
13,TAGATACATACACGCACACACATATATATATATATA [CACACA_site12],10.11 ± 0.035
14,CACTAAAATAGACACACACACACACGGATATAAATA [CACACA_site7873],10.3 ± 0.29
15,CTTAAATTTAAGTTCACACATATTGGTCATTTATAT [CACACA_site5006],8.89 ± 0.45
16,TTTATTTGTAACGGTTGTACTTGTATATCATTATGA [XGTACX_site4281],8.74 ± 0.45
17,TAGTGATATAATTATGTGCACTTAATACAGGTCGAT,9.06 ± 0.39
18,GATATTTTTTTCGAAAGTACAAAAAAAAATATTTCC [XGTACX_site4389],8.33 ± 0.37
19,AAAATTAAAAATAACACACACATATATATATTTATA [CACACA_site2776],9.21 ± 0.25
